The whole screen tested about 46,000 compounds, of which about 60 (0.1%) were called active. About 3% were inconclusive and are not listed. Calls come from the whole dose curve; as a rule, active = well fitted inhibition curve with a large enough effect; inconclusive = small, poorly fitted or top-dose-only effect; inactive = no such curve, though single readings can be large or run the other way. The list shows a part of the results.
Experiment: Primary qHTS assay for Inhibitors of ovarian cancer metastasis using an organotypic tumor microenvironment (TME) model.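 For activity change, negative = inhibition: plate controls were DMSO wells for no effect and tomatine positive control wells for full effect.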 Note: nearly all actives have a fitted effect of over 65% in size.
Settings: SKOV3ip1-GFP adhesion/invasion on 3D omental model, fluorescence; series mostly up to 45.8 µM; activity change, negative = inhibition: at the top concentration
Method in brief: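 Primary human omental fibroblast/mesothelial 3D culture pre-formed 48 h. SKOV3ip1-GFP cells added with compounds (0.36-46 umol/L), incubated 2 h RT/16 h 37 C, fixed; GFP cells quantified at 488/509 nm.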

outcome, inactive:
O=C(CSc1nc2c(oc3ccccc32)c(=O)n1-c1ccccc1F)Nc1ccccc1
O=C(CN1C(=O)COc2ccc(S(=O)(=O)N3CCOCC3)cc21)NCc1ccc(F)cc1
Cc1ccc(Nc2c3c(nc4nncn24)CCC3)cc1C
CCc1ccc(NC(=O)C2CCN(S(=O)(=O)c3ccc4[nH]c5c(c4c3)CCCCC5)CC2)cc1
O=C(CCn1c(=O)c2ccccc2n(Cc2ccc(F)cc2Cl)c1=O)NCc1ccc2c(c1)OCO2
COc1ccc(-c2ccc3c(N)c(C(=O)NCc4ccc(Cl)cc4)sc3n2)cc1
CCOC(=O)C1CCN(C(=O)C2CCN(C3=NS(=O)(=O)C(c4ccc(C)cc4)=C3CC)CC2)CC1
CCOC(=O)c1noc2ncnc(Nc3ccc(F)cc3F)c12
O=C(NCCCN1CCN(c2ccc(F)cc2)CC1)Nc1ccc(Cl)cc1
Cc1ccc(-c2nnc(SCc3ccccc3C#N)o2)cc1
CCOC(=O)C(CC)n1nc(C)n2c(cc3occc32)c1=O (stereo not drawn)
Cc1csc2nc(-c3cccc(NC(=O)c4ccccc4Cl)c3)cn12
Cc1ccc(NC(=O)c2cc(S(=O)(=O)N3CCCC(C)C3)cn2C)c(Br)c1 (stereo not drawn)
CCOC(=O)c1c(-c2ccc(C)cc2)csc1NC(=O)c1nc(SCC)ncc1Cl
O=C(NC1CC(=O)N(c2cccc(F)c2)C1)C1CC1 (stereo not drawn)

Activity change, negative = inhibition, inactive:
Cc1ccc(CN2CCSc3ccc(C(=O)N4CCN(c5cc(C)ccc5C)CC4)cc32)cc1 -7.76%
CCOc1cc(S(=O)(=O)n2ccnc2C(C)C)ccc1Cl -11.9%
Cn1c(=O)cc(SCC(=O)N2CCN(c3ccc(F)cc3)CC2)c2ccc(Cl)cc21 0.162%
CC(C)CN1CCc2nc(N3CCN(C)CC3)ncc2C1 0.406%
COc1cc(NC(=O)c2ccccc2)ccc1NC(=O)c1cc2ccccc2o1 3.45%
Cc1cccc(NC(=O)CSc2nc(-c3ccco3)nc3cc(=O)[nH]n23)c1 -17.6%
CC(=O)N1CCc2cc(Br)cc(S(=O)(=O)N3CCC(C(=O)N(C)c4cc(C)ccc4C)CC3)c21 -3.38%
COc1ccc(-c2cc3ccc(O)c(CN4CCOCC4)c3oc2=O)cc1 14.5%
CCOC(=O)c1c(C)oc2nc(C)nc(NCc3ccc(Cl)cc3)c12 4.3%
CCn1cc(C(=O)N2CCN(c3ccccc3F)CC2)c(=O)c2cc(S(=O)(=O)N(C)C3CCCCC3)ccc21 -10.4%
COC(=O)c1c(SC)nc2ccccc2c1OCc1ccccc1C 1.91%
CC(=O)c1ccc(S(=O)(=O)Nc2cccc(-c3ccc(N4CCCCC4)nn3)c2)cc1 8.27%
Cn1cc(S(=O)(=O)N2CCCCCC2)cc1C(=O)N1CCN(c2cccc(Cl)c2)CC1 -0.613%
O=[N+]([O-])c1cc(-c2nc(-c3ccccc3)no2)ccc1N1CCN(c2ccccc2)CC1 1.44%
CCOC(=O)CSc1nc2c(sc3ccccc32)c(=O)n1CCc1ccccc1 -4.59%
Cc1ccc(CNC(=O)C2CCN(c3nc4ccccc4n(C)c3=O)CC2)cc1 14.2%
Cc1cccc(C)c1NC(=O)Cn1c(=O)n(CC2CCC(C(=O)NCCc3ccccc3)CC2)c(=O)c2ccccc21 (stereo not drawn) 44.6%
CC(C)C[C@H](NC(=O)[C@@H](NC(=O)c1cccc(-c2ccccc2)n1)[C@@H](C)O)B(O)O -19.3%
CCOc1ccc2nc(C)cc(Nc3ccccc3OCC)c2c1 3.76%
CCCOc1ccc(CNC(=O)C(CC)n2nc(C)c3sc4ccccc4c3c2=O)cc1 (stereo not drawn) -5.3%
Cc1ccc(C(=O)O)cc1Nc1nc2ccccc2n2nnnc12 -4.87%
Cc1ccc(Cl)cc1N1CCN(C(=O)CCC(=O)Nc2ccc3nc(N4CCC(C)CC4)cc(C)c3c2)CC1 -4.03%
Cc1ccc(NC(=O)Cn2nnc(-c3nc(-c4ccncc4)no3)c2N)cc1 10.1%
CCOC(=O)c1c(NC(=O)c2ccccc2Cl)sc2c1CCCC2 -0.947%
COCCNC(=O)c1c(C)oc2nc(C)nc(N3CCOCC3)c12 -0.409%
Cc1ccc2c(c1)NC(c1cccnc1)=NC(c1ccc(F)cc1)=N2 -5.99%
CCOc1cc(-c2nc3c(c(CC)nn3-c3ccccc3)c3cc(OC)c(OC)cc23)ccc1O 0.68%
COc1ccc2c(c1)c(CC(=O)O)c(C)n2C(=O)c1ccc(Cl)cc1 8.42%
COc1cccc(-c2nc(CS(=O)(=O)CC(=O)NCc3ccc(C)cc3)c(C)o2)c1 -28.7%
Cc1cccc(OCC(=O)OCc2cc(=O)n3nc(C4CCCCC4)sc3n2)c1 -0.319%
Nc1nc2ccc(OC(F)(F)F)cc2s1 -11%
Cc1ccc(S(=O)(=O)NCC(c2ccc(N(C)C)cc2)N2CCOCC2)cc1 (stereo not drawn) -1.84%
O=C(NC1CCCCCC1)C1CCN(C(=O)N2CCOc3ccccc32)CC1 28.7%
Cc1ccc(CNC(=O)CCc2c(C)nn(-c3ccc(N4CCCCC4)nn3)c2C)cc1 -6.25%
Cc1ccc(-c2nc3ccccn3c2Nc2ccc3c(c2)OCO3)cc1 2.77%
COc1ccc(C(=O)c2cn(Cc3ccc(F)cc3)c3ccc(C)cc3c2=O)cc1 -7.28%
COc1cc(/C=C(\C#N)c2nc3ccccc3n2C)cc(OC)c1OC 1.39%
Cc1nc(C)c(-c2ccc(SCC(=O)Nc3ccc(F)c(F)c3)nn2)s1 -2.74%
O=c1c2cc3c(cc2nc2sc(Nc4ccc(F)c(Cl)c4)nn12)OCO3 4.6%
COc1cc(OC)c(N(C)C(=O)Cn2ncc3c([nH]c4ccccc43)c2=O)cc1Cl -3.7%
CN(Cc1ccccc1)C(=O)C1CCN(S(=O)(=O)Cc2ccccc2)CC1 1.85%
CCN1CCN(c2oc(/C=C/c3ccccc3OC)nc2C#N)CC1 -8.49%
Cn1c(=O)c2c(-c3cccc(Br)c3)n(CCO)cc2n(C)c1=O 1.71%
CCOc1ccc(CNC(=O)c2cc3ccccn3n2)cc1OC -9.84%
CCc1ccc(CN(Cc2cn[nH]c2-c2ccc(OC)cc2)C(=O)Nc2ccc(C)c(F)c2)cc1 -14.8%
CC1CCN(CCCNC(=O)c2cc(Sc3ccc(F)cc3)nc3ccccc23)CC1 -4.11%
COc1cccc(NS(=O)(=O)c2ccc3[nH]cc(C(=O)N4CCCCCC4)c(=O)c3c2)c1 2.83%
Cc1ccc(-n2c(=O)c3ccc(C(=O)NCc4ccccc4Cl)cc3n(Cc3ccccc3F)c2=O)cc1 -8.72%
CSc1nnc(NC(=O)Cc2coc3cc(C)ccc23)s1 -8.4%
Cc1ccc(NC(=O)c2oc3ccccc3c2NC(=O)c2ccccc2C)cc1 66.3%
COc1ccc(Cn2c(=O)c3cccnc3n(Cc3cccc(OC)c3)c2=O)cc1 -15.7%
CCOC(=O)c1c(-c2ccccc2)oc2ccc(NS(=O)(=O)c3ccc(C)cc3C)cc12 19%
Nc1cccc(-c2cn3ccsc3n2)c1 -6.21%
